Experimental data published in PubChem BioAssay AID1768 (National Center for Advancing Translational Sciences (NCATS), 2009).
Several values for one entry are separate records, joined by “and”; a condition that tells them apart may be missing. Equal values may be shown once. Among all 270,000 compounds or so, about 620 (0.23%) were called active. Inconclusive results, whose numbers are uncertain, are shown with a selection of clear calls. Calls follow the shape of the dose curve; as a rule, active = well fitted inhibition curve with a large enough effect in the polarisation, with a control signal flat (not every such curve was filed as active); inconclusive = small, poorly fitted or top-dose-only effect, or effect the other way, or a change in a side signal; inactive = no such curve, though single readings can be large or run the other way; the % refers to the polarisation. Potencies of inconclusive entries are doubtful fits and often do not repeat. A note “side channel” means that the fit belongs to a control or component signal, not to the main read-out.

What follows are molecules tested against Menin (Homo sapiens) (UniProt O00255) (assay: qHTS Assay for Inhibitors Targeting the Menin-MLL Interaction in MLL Related Leukemias: Competition With Texas Red Labeled MLL-derived Mutant Peptide). Conditions: fluorescence polarization; series mostly up to 61.6 µM.
Chain of UniProt O00255 (O00255 whole entry, looked up): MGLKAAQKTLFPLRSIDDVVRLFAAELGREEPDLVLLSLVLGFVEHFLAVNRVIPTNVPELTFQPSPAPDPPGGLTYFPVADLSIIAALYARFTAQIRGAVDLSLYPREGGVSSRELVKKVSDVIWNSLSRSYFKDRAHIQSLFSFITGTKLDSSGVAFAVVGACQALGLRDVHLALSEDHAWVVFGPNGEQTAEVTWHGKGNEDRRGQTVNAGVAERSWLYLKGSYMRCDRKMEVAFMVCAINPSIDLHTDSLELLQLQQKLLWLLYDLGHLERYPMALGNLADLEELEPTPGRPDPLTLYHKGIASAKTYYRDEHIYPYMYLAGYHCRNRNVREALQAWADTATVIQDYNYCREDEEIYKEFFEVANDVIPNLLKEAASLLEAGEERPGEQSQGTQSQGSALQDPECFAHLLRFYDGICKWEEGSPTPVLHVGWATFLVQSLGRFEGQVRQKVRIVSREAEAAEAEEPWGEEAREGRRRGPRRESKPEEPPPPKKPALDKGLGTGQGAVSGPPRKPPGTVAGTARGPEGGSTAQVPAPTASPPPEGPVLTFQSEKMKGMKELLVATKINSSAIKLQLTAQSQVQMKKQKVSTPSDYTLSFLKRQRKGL
Potency is read from the fitted curve at half-maximal effect; tags tell the direction and shape of the fitted curve or compound fluorescence and quenching.

Potency, inactive:
Cc1cc(NC(=O)CCCN2C(=O)c3cccnc3C2=O)no1
O=C(O)/C=C/C(=O)c1c(-c2ccccc2)[nH]c2ccccc12
Cn1c2ccccc2c2c(C(=O)N3CCN(c4ccccn4)CC3)cn(C3CCCC3)c(=O)c21
N=c1c(C(=O)NCCc2ccccc2)cc2c(=O)n3ccccc3nc2n1Cc1ccco1
CCCCS(=O)(=O)Nc1ccc2ncn(C)c(=O)c2c1
NNC(=O)c1cc2cc3ccccc3nc2s1
Nc1c(C(=O)OCC2CCCO2)c2nc3ccccc3nc2n1C1CCCCC1 (configuration not stated)
CCc1c(C(=O)Nc2ccccc2)c(C)[nH]c(=S)c1C#N

Potency, inconclusive:
Cc1cc(C)n(S(=O)(=O)c2ccc(C(C)(C)C)cc2)n1 28.2 µM [fluorescent, side channel, single point]
Cc1ccc2nc(-c3ccc(NS(=O)(=O)c4ccc(F)c(F)c4)cc3)sc2c1 20 µM [quencher, side channel, partial curve]
COc1ccccc1C(=O)NC(=S)Nc1ccc2[nH]c(=O)[nH]c2c1 10 µM [inhibitor, partial curve]
CN(C)c1nc(=Nc2cccc(Cl)c2)ss1 12.6 µM [quencher, side channel, partial curve]
O=C(CCC1CCCCC1)NCCN1C2=NC[C@@H](Cc3ccccc3)N2C[C@H]1Cc1ccc(O)cc1 2 µM [fluorescent, side channel, full curve]
O=C(Nc1sc2c(c1C(=O)O)CCCC2)c1cccc(Cl)c1 14.1 µM [quencher, side channel, partial curve]
CC(C)c1ccc(N(CC(=O)NC2CCCC2)C(=O)CCC(=O)Nc2ccccn2)cc1 20 µM [inhibitor, partial curve]
CC1C(=O)C(C)C(c2ccccc2F)NC1c1ccccc1F (configuration not stated) 20 µM [inhibitor, partial curve]
CCC1C(=O)C(CC)C(c2ccccc2)NC1c1ccccc1 (configuration not stated) 20 µM [fluorescent, side channel, partial curve]
Cn1cc(C2=C(c3ccc(Cl)cc3Cl)C(=O)NC2=O)c2ccccc21 39.8 µM [inhibitor, single point]
O=C(NCC1CCCO1)c1coc2nc3ccccc3nc12 (configuration not stated) 39.8 µM [inhibitor, single point]
O=c1c(CCc2ccccc2)nc2cnc(Nc3ccccc3)nc2n1C[C@H]1CCCO1 39.8 µM [fluorescent, side channel, single point]
O=C(NCCCN1CCOCC1)c1ccc(CSc2ccc(Cl)cc2)cc1 8.91 µM [fluorescent, side channel, partial curve]
C=CCN(c1ccc(C(=O)Nc2cccc([N+](=O)[O-])c2)cc1)S(C)(=O)=O 14.1 µM [quencher, side channel, partial curve]
Brc1ccc(-c2nnc(-c3ccc4c(c3)OCO4)o2)o1 25.1 µM [inhibitor, single point]
CCC1CCCCN1Cc1nc2c(c(=O)n(C)c(=O)n2C)n1Cc1cccc2ccccc12 (configuration not stated) 0.631 µM [inhibitor, full curve, poor fit]
O=C(CCC1CCCN(C(=O)c2cc(C3CC3)[nH]n2)C1)N1CCN(c2ccccn2)CC1 (configuration not stated) 2.24 µM [fluorescent, side channel, full curve, poor fit]
CCn1ncc(Br)c1C(=O)N(C)C12CC3CC(CC(C3)C1)C2 3.16 µM [fluorescent, side channel, full curve, poor fit]
COCCCNC(=O)/C(C#N)=C/c1c(N2CCN(c3ccccc3)CC2)nc2c(C)cccn2c1=O 3.16 µM [inhibitor, full curve]
COc1cccc(C(=O)NCc2ccc3[nH]c(C)cc3c2)c1 28.2 µM [fluorescent, side channel, partial curve]
COCc1cc(O)c(O)c(O)c1-c1c(COC)cc(O)c(O)c1O 25.1 µM [quencher, side channel, single point]
COc1cc(/C=N/NC(=O)c2cccc([N+](=O)[O-])c2)ccc1OCc1ccccc1 10 µM [quencher, side channel, partial curve]
CCc1cc(=O)oc2cc(C)c(CN3CCCC3)c(O)c12 28.2 µM [quencher, side channel, single point]
NNC(=O)CNC(=O)C12CC3CC(CC(C3)C1)C2 39.8 µM [fluorescent, side channel, single point]
Cc1ccc(S(=O)(=O)Nc2cccc3ncccc23)s1 39.8 µM [quencher, side channel, single point]
CN(C)C(CNC(=O)C1CCN(S(=O)(=O)c2ccc(Cl)cc2)CC1)c1ccccc1 (configuration not stated) 44.7 µM [inhibitor, partial curve, poor fit]
COc1ccc(C(=O)NC(C)c2nnc(SCc3ccc(Cl)c(Cl)c3)n2C)cc1 (configuration not stated) 25.1 µM [fluorescent, side channel, single point]
O=C(NC(NC(=S)Nc1ccc(F)c([N+](=O)[O-])c1)C(Cl)(Cl)Cl)C(c1ccccc1)c1ccccc1 (configuration not stated) 1.26 µM [quencher, side channel, full curve] and 3.16 µM [quencher, side channel, full curve]
COc1cc(/C=N/NC(=O)c2cccc(S(=O)(=O)N3CCCCC3)c2)cc(Br)c1O 14.1 µM [quencher, side channel, partial curve]
COC(=O)CN1C(=S)N(Cc2ccccc2)C(=O)C1CC(=O)Nc1ccc(Br)cc1 (configuration not stated) 2.51 µM [quencher, side channel, full curve]
O=C(CS(=O)(=O)c1ccccc1)Nc1nc(-c2ccc(F)cc2)cs1 39.8 µM [quencher, side channel, single point]
O=C(CSc1nnc(SCc2ccccc2)s1)NNC(=S)Nc1ccccc1 22.4 µM [quencher, side channel, partial curve]
CCOc1ccccc1-n1c(SCC(N)=O)nnc1-c1ccco1 25.1 µM [inhibitor, partial curve]
Cc1ccccc1NC(=O)c1cc(S(=O)(=O)N2CCCCC2)cs1 8.91 µM [fluorescent, side channel, full curve, poor fit]
Cc1ccc2c3c(c(SCC(=O)Nc4nonc4C)nc2c1)CCCC3 39.8 µM [inhibitor, single point]
O=C(Nc1nc2ccc3ccccc3c2s1)c1ccc(N2CCCCC2)c([N+](=O)[O-])c1 3.98 µM [quencher, side channel, partial curve]
CSc1nnc(-c2nnc(SC)n2-c2ccccc2)n1-c1ccccc1 3.55 µM [inhibitor, partial curve]
COc1cc(/C=C2/SC(=S)N(CC(=O)Nc3nc4ccccc4s3)C2=O)cc(OC)c1OC 8.91 µM [quencher, side channel, partial curve]
N#Cc1c(-c2ccccc2)nc(SCC(=O)Nc2ccc(OC(F)(F)Cl)cc2)[nH]c1=O 31.6 µM [quencher, side channel, single point]
O=C(COc1ccccc1-c1ccccc1)NCCN1C(=O)S/C(=C\c2cccnc2)C1=O 25.1 µM [fluorescent, side channel, partial curve]
Cc1cc(NS(=O)(=O)c2ccc(NC(=O)Nc3cccc(Cl)c3)cc2)no1 14.1 µM [quencher, side channel, partial curve]
CC(C)CC(=O)Nc1nnc(SCC(=O)Nc2nccs2)s1 7.94 µM [fluorescent, side channel, partial curve]
CCCC(=O)C1=C(c2ccccc2)C(C#N)(C#N)C(C#N)=C1N 31.6 µM [quencher, side channel, single point]
Cn1cccc1-c1nc2ccc(NC(=O)c3cccs3)cc2[nH]1 22.4 µM [quencher, side channel, single point]
COc1ccccc1CC(=O)N1CCN(c2ccccc2)CC1 39.8 µM [inhibitor, single point]
Cc1ccc(C(=O)Nc2nnc(CC(=O)N/N=C/c3ccc(O)c(O)c3)s2)cc1 25.1 µM [quencher, side channel, partial curve]
Cc1cccc(NC(=S)Nc2ccccn2)c1C 39.8 µM [inhibitor, single point]
CNc1ccc(/C=C(\C#N)c2ccccn2)cc1[N+](=O)[O-] 25.1 µM [inhibitor, partial curve]
C=CCNC(=O)c1ccc2c(=O)n(Cc3ccccc3OC)c(=S)[nH]c2c1 39.8 µM [inhibitor, single point]
